Values marked as one replicate rest on one cluster of the flow cell; about a third of the high ones do not repeat.
Tested on: ATP
Test: switch fluorescence ratio, 500 uM ATP over buffer (Cy3 cluster intensity, sum of 5 cycles each) (fold (ratio)); higher = stronger signal-on switching upon ATP binding; sequences stand for … in TCGTCGGCAGCGTCAGATGTGTATAAGAGACAGTTTTTTTTTTTTTTTTTTTTTTTTT…TC
Conditions: aptamer strand: ATP DNA aptamer (quencher-CACCTGGGGGAGTATTGCGGAGGAAGG + anchor), 100 nM annealed; ATP concentration: 500 uM; one replicate
Method in brief: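 Exposure to 500 uM ATP lasted 15 min at 22 °C before imaging, and a selection-buffer image was taken beforehand, for Cy3-labelled switching-strand clusters on a modified Illumina MiSeq flow-cell annealed to 100 nM quencher-labelled ATP aptamer. Five buffer/ATP cycles were run with NaOH stripping and re-annealing between them. The fluorescence ratio per cluster is summed target-cycle over summed buffer-cycle Cy3 intensity, averaged per switch-domain sequence. Clusters outside 100-1000 RFU were excluded.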

Row | Sequence | switch fluorescence ratio
1 | AGTTACAGAT | 1.05
2 | TCAGGCTAGT | 1.03
3 | AGTGGATACA | 0.99
4 | GAATGGTTGA | 1.01
5 | AGTCCCGGAC | 1.01
6 | TAACGTCCGG | 1
7 | TACTCGAGC | 1.01
8 | ACCAGAGAAA | 1.02
9 | TTCGTTGGTC | 0.946
10 | GCATTCATCT | 1.02
11 | AAGCCCTCAG | 1.01
12 | TTGATTGGTT | 1.05
13 | CGAAAGTGC | 1.09
14 | GCAGCCGACC | 1.67
15 | TGTAAGTGAC | 1.13
16 | CGAGATTGAG | 1.02
17 | TAAGAATACG | 1.01
18 | TTTATGTTG | 1.02
19 | GAATGCCGCG | 0.988
20 | GTCGGAGAGG | 0.961
21 | CCGGGACACG | 1.06
22 | CTGGGCAGGA | 1.06
23 | GAAGCCGCAT | 1.46

Row | Sequence | switch fluorescence ratio
24 | CATTGGGCTG | 0.976
25 | TTATACTGAT | 1.02
26 | ATTCATCCTG | 0.984
27 | ATACGGCTAT | 1.07
28 | CCCCCATGCA | 1.75
29 | AAATAGCGGC | 1.03
30 | TTGCACTAAG | 0.997
31 | TGGAACCTTG | 1.02
32 | CGAATTGCTT | 0.997
33 | TCAGGCGCCA | 0.966
34 | ATTTGTCAGT | 1.01
35 | AAATCGAGGC | 0.945
36 | GCGTAACATA | 0.99
37 | TAAATAAACG | 1.04
38 | ATCTTAATGA | 0.986
39 | TTAAAGGCAC | 1.18
40 | CGGTAACGGT | 1.02
41 | AGTAAAGAGC | 0.959
42 | TAAAGTGTAA | 1.02
43 | GGCACGCGGA | 1.02
44 | GACCCTAAGT | 1.01
45 | TACGCGCTGC | 1.01
46 | ACCTTTAAAC | 1.05

Row | Sequence | switch fluorescence ratio
47 | TGCGGGGGA | 1.04
48 | GTTGAAGACG | 0.985
49 | CTTCAGAGGC | 1.06
50 | GCGACAAAGC | 1.05
51 | AGCACGACGG | 1.04
52 | CGCCTTCTCC | 2.27
53 | TTAACGGAG | 0.99
54 | GGAGAATCG | 1.01
55 | ATTCTACTAG | 1.01
56 | AATCGCAGAG | 1.02
57 | TTGAGGCTCT | 0.975
58 | TTAAAGGTCA | 0.956
59 | CCTTGTCTGT | 1.01
60 | AGCCATCGAA | 1.01
61 | GAGCTCTGAG | 1.05
62 | TCTCGAAGGG | 1.03
63 | CCACGAGACG | 1.01
64 | TAAGTATCGA | 0.99
65 | ACTATGGTTT | 1.04
66 | GCATGGCCTT | 1.02
67 | TGACTACCGG | 1.02
68 | ACAGACG | 1.02
69 | TCTATGAAGA | 0.952

Row | Sequence | switch fluorescence ratio
70 | GATATAGGTG | 1.09
71 | GGCATGTTAC | 1.27
72 | CATGCGACC | 3.3
73 | CTGGTAACGC | 1.05
74 | TATCTAAGGG | 0.985
75 | GGCGTCAGTA | 0.982
76 | TAACATTCGA | 1
77 | TGTAGAGATG | 0.996
78 | CTGTCCGTGG | 1
79 | TCCGGTTTGC | 1.21
80 | CGCGGACTAA | 1.05
81 | ATTCGTATCC | 0.977
82 | GGGTTTCGTA | 1.01
83 | CGGTTGACAG | 1.02
84 | CCGCTATTTT | 2.25
85 | ACTGGTAATT | 1.06
86 | ACGCCAGTTT | 1.04
87 | CTGCTATAAG | 1.07
88 | GGCGAGGTTC | 0.991
89 | GTCGACACAT | 0.979
90 | GTTGAAATCA | 0.981
91 | ACACTATCTA | 1.05
92 | TCTAGTGCAG | 1.02

Row | Sequence | switch fluorescence ratio
93 | TACGTTCAGT | 0.972
94 | CTTGTATGTG | 1.01
95 | TTAGTGTTGC | 1.06
96 | CCTGACTCCG | 3.21
97 | AATTACCCA | 0.997
98 | CTGTAATCTT | 1.05
99 | CCAGTCATTG | 1.02
100 | GGATAGACGG | 0.947
101 | ACCTGCCGCC | 2.03
102 | AGAGCTAAGG | 0.985
103 | TGTAAAACGA | 0.972
104 | GGGTCTGCTG | 0.961
105 | GAATAAGCAT | 1.28
106 | GATAGGACGT | 0.962
107 | ACGGCAGTCT | 1.03
108 | AAGCGCGT | 1.04
109 | GTGAGTTTCT | 0.997
110 | GTGCGCTTTC | 1.02
111 | CAATGATCTG | 0.982
112 | GTGGGGCACC | 0.961
113 | TAGACTCTGC | 1.12
114 | ATTTACCTTT | 1.06
115 | AGCCCGCTGC | 1.23

Row | Sequence | switch fluorescence ratio
116 | TACCTATTTG | 1
117 | AATGAATACC | 1
118 | CCGGTTGCAG | 1.33
119 | GTCGCTCGTC | 0.99
120 | AATATTCGTA | 1.01
121 | AAGCAGGACA | 1.08
122 | CGTCGACCCG | 0.992
123 | GGAGTCTGCA | 1.12
124 | CGATACTCCA | 2.45
125 | ATATGGGCGA | 0.966
126 | TCGATATCTG | 0.998
127 | GCGTAGCGCT | 0.962
128 | ATTTAGTGTG | 0.986
129 | CAATGGACTA | 0.977
130 | TGTGCCAGCC | 1.12
131 | TTCAAAGA | 1
132 | TAATTCCAAA | 1.04
133 | CTGACGGTGG | 0.946
134 | GATTGGCGTG | 1
135 | TAGCATAACA | 0.969
136 | GACATTCAG | 0.992
137 | CCCGCGGGTG | 3.55
138 | AGCGGTGTCA | 1.02

Row | Sequence | switch fluorescence ratio
139 | TCCAGTCTGT | 0.983
140 | GTGCTTGGGT | 0.988
141 | GTATGGTGCG | 0.923
142 | TAGTTCGAAA | 0.988
143 | AGACAGTTAT | 1.01
144 | TATTTAGCCT | 1.05
145 | TCAAATTGTT | 1
146 | GTTAATAAGG | 1
147 | AGAGAGGGT | 0.996
148 | CAGGACGATT | 0.991
149 | GCTAATTTCG | 0.999
150 | AATCAGTGCA | 0.975
151 | GTGTGCTTTT | 0.987
152 | CTCCGGAGG | 1.02
153 | CAATTTGGGT | 1.02
154 | TACGCAACTG | 1.54
155 | ACATAACTTA | 1.12
156 | TGGGGCATAG | 0.965
157 | CGTCGGTTCG | 1.02

From the supplement of paper PMC10126150
